# From the RNAGym collection of RNA variant scans (doi:10.1093/nar/gkz1192)
# The source gives no read counts; variants with many changes may rest on few reads.
# B1: CPEB3 Ribozyme (parent)
# chain: UAACAGGGGGCCACAGCAGAAGCGUUCACGUCGCAGCCCCUGUCAGAUUCUGGUGAAUCUGCGAAUUCUGCUGUAUAUCUC
# Variants of: B1
# Assay: self-cleavage, relative activity (ratio to wild type); higher = more cleavage; in vitro, sequencing
# In short: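 CPEB3 self-cleaving ribozyme mutant libraries were made by rounds of error-prone PCR, barcoded, and transcribed in vitro with T7 RNA polymerase for 5 hours at 37°C. Cleavage occurred during transcription and a 15 min DNase I step before EDTA stop. RNAs were reverse transcribed with template switching and Illumina-sequenced, with DNA sequencing mapping barcodes to variants. Relative activity is the variant's cleaved/total read fraction divided by wild type's (minimum 5 reads), averaged across three batches.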
row,Variant,self-cleavage
1,G9U A45G A65G G73A U74C,0.05
2,G9U A45G U51A G55A A64G U80C,0.04
3,G9U A47G A56U U69C,0.31
4,G9U A47G A77U,0.1
5,G9U A56U U69G,0.05
6,G9U C11U U26C C34G U78C,0.05
7,G9U C12G A18G C32U,0.05
8,G9U C12U A18G U49C A64G U72G,0.02
9,G9U C14U C29U U60C,0.06
10,G9U C23U A47G U60C U69A,0.11
11,G9U C23U U26C U66A U74A,0.09
12,G9U C27U U72C U74C,0.21
13,G9U C27U U76A,0.18
14,G9U C32A A56G C62U U74C,0.14
15,G9U C37U U48C,0.13
16,G9U G16U A45U U66C U67A C68U U80C,0.05
17,G9U G53A U69A,0.06
18,G9U G63U U76C,0.25
19,G9U U25C U76C U80A,0.12
20,G9U U26C G33A A35C A77G,0.05
21,G9U U31A U41C G42C A57G,0.28
22,G9U U31A U72C U80C,0.06
23,G9U U41A U49C U51C U67C,0.06
24,G9U U48C A65U U69A A75U,0.04

row,Variant,self-cleavage
1,G9U U49C U58C U69C U78A,0.05
2,G9U U49C U67C,0.31
3,G9U U51C U69C U72A,0.05
4,G9U U54C U72C U78A,0.24
5,G9U U58A A75G,0.06
6,G10A A13G A57G U60C U80C,0.06
7,G10A A13G C29G A47U U54C C79U,0.08
8,G10A A13G G42A U72A,0.07
9,G10A A13U A18U A21G C40A U43A,0.06
10,G10A A13U G63U,0.39
11,G10A A13U U41C U58C,0.09
12,G10A A13U U43C C44U C59G C81A,0.04
13,G10A A13U U67A,0.43
14,G10A A13U U76A U80C,0.1
15,G10A A15G A21G U26A U41C U74C U78C,0.19
16,G10A A15G A35G C39U U43C U60C U69A,0.05
17,G10A A15G C40U,0.07
18,G10A A15G C71U U78A,0.07
19,G10A A15U G55A A64U,0.06
20,G10A A15U U31A A45G,0.04
21,G10A A18G A20U U26C C37U A56G U80C,0.03
22,G10A A18G U80C,0.47
23,G10A A18U A35G U41A U51C U54C U60C,0.05
24,G10A A18U U25G U43C C44U A64U,0.25

row,Variant,self-cleavage
1,G10A A20G A28G A56G U58C A64U,0.04
2,G10A A20G A35C U41C U43A U72C A77C,0.04
3,G10A A20G A45U U54C U67C,0.05
4,G10A A20G U26A U48C A64G U69C U78C,0.03
5,G10A A20G U31A U48C U54C,0.15
6,G10A A20G U41C U49C A57G A64U,0.05
7,G10A A20G U69C,0.07
8,G10A A20U A28G U31A A65G,0.07
9,G10A A20U U25C U31C U60A,0.14
10,G10A A20U U26A A45U,0.15
11,G10A A20U U49A U51G U66C,0.17
12,G10A A21G A64G,0.06
13,G10A A21G U25A A45G U74C,0.07
14,G10A A21G U78A,0.24
15,G10A A21U U25C U72A,0.11
16,G10A A28G A57G A64G U72G U80C,0.06
17,G10A A28G G53U,0.08
18,G10A A28G U41A A64G U67C,0.13
19,G10A A28G U51A A56G U66A U72A U76C,0.03
20,G10A A28G U60G G63U,0.05
21,G10A A28U G30A U78C,0.15
22,G10A A35G A64G U69C U72A,0.07
23,G10A A35G G55A U60A,0.06
24,G10A A35G U49G,0.24

row,Variant,self-cleavage
1,G10A A35G U54C U72C,0.63
2,G10A A35G U60G A64G,0.31
3,G10A A45C A64U U72C,0.18
4,G10A A45G U54C U72C,0.08
5,G10A A45G U67C U72C U80G,0.05
6,G10A A45U A56U A65G,0.12
7,G10A A57G G70U,0.06
8,G10A A57G U66C,0.33
9,G10A A57G U72A,0.1
10,G10A A65G U67C U69A,0.11
11,G10A A65U U69C U74C,0.09
12,G10A C11G A21G U76G U80A,0.06
13,G10A C11U A45U A47G U69A,0.04
14,G10A C11U U49A U60G U69C G70A A75G,0.06
15,G10A C12A U41C C50A U54C U66C,0.22
16,G10A C12U G16A U60A A64G U66C,0.05
17,G10A C14A A18G U48C A56U U60A U78C,0.02
18,G10A C14U U51A U54A,0.07
19,G10A C17U A47U,0.03
20,G10A C23U U41C,0.06
21,G10A C29A A47G U78C U80C,0.11
22,G10A C29A U41G U72C,0.18
23,G10A C29A U43C U80C,0.21
24,G10A C29U A45G A47U A56C,0.09

row,Variant,self-cleavage
1,G10A C29U C44U U54A,0.14
2,G10A C34A U41A A57G U67A U72G,0.02
3,G10A C40U U43C A75G,0.05
4,G10A C44U G63A U78C,0.05
5,G10A G16A U49C,0.07
6,G10A G19A A21U,0.05
7,G10A G30A U31A,0.05
8,G10A G36A U49C U60C U78C,0.05
9,G10A G42A U43C,0.27
10,G10A G46A G53A A57G,0.05
11,G10A G46A U66C C71A U72C,0.08
12,G10A G53C A65G U80C,0.04
13,G10A G61U A64U,0.06
14,G10A U25C C32A U41A G55C U72G U80C,0.04
15,G10A U25C C59A U67C,0.06
16,G10A U25C G33A U41A,0.06
17,G10A U25C U26C U48C,0.19
18,G10A U25C U26C U76C,0.06
19,G10A U25C U49A U67A,0.34
20,G10A U25C U74A,0.19
21,G10A U26C C27U A47G,0.19
22,G10A U26C U43A U72G,0.31
23,G10A U26C U43C U80C,0.4
24,G10A U26C U69C,0.06

row,Variant,self-cleavage
1,G10A U26G A35C U41C,0.17
2,G10A U31C A35U U48C U80C,0.19
3,G10A U31C A45G,0.13
4,G10A U41A U69A U80C,0.16
5,G10A U41C A64U A65U U72C,0.09
6,G10A U43A U60A,0.29
7,G10A U48C A56G,0.06
8,G10A U48C U72A,0.18
9,G10A U49C U54C,0.18
10,G10A U54A U60C,0.26
11,G10A U60C U80C,0.2
12,G10A U67A U72A A77G,0.06
13,G10A U67C U69C,0.09
14,G10A U67C U76C A77U,0.04
15,G10A U78A U80C,0.16
16,G10C A13G A20G U41C U43G U51C U80A,0
17,G10C A13G U41A C62A,0.07
18,G10C A15G C17G A20G A65G A75U,0.36
19,G10C A15G G24A U26C U43C U72A,0.24
20,G10C A18G A20G G52A,0.28
21,G10C A18G A28U A75G,0.38
22,G10C A20C C59U,0.06
23,G10C A20U G53A,0.11
24,G10C A20U U41A U43A U49C U51A,0.14

row,Variant,self-cleavage
1,G10C A21G U41A A56G,0.07
2,G10C A28G A47G U60C U66C,0.14
3,G10C A45G U67C U72C,0.09
4,G10C A64G C71A U72A,0.05
5,G10C C12A A13G U54C U67C,0.2
6,G10C C29U A35U U49C U51A G53A,0.11
7,G10C C38A A45U U51C U80C,0.17
8,G10C C50U A65G,0.06
9,G10C G22A U31C G33A C62U U72C A75G,0.05
10,G10C U25C C34U,0.1
11,G10C U26C A64G A65G,0.23
12,G10C U26C U51A U69C,0.08
13,G10C U31G A47G U60C A75G,0.05
14,G10C U48C A65U,0.13
15,G10C U49A U72A,0.24
16,G10C U49C U80A,0.12
17,G10C U54A A64G,0.15
18,G10U A13C A15G U41A,0.1
19,G10U A13G U49A U78C,0.16
20,G10U A13G U60G U72C,0.06
21,G10U A13U A45G U67C,0.34
22,G10U A13U C17U,0.09
23,G10U A15G U31C C59A U72C,0.05
